Source: PubChem BioAssay AID686970 (National Center for Advancing Translational Sciences (NCATS), 2013)
About 6,000 (1.7%) of roughly 360,000 compounds were called active. The inconclusive results got no clear call from the source; some entries with a clear call stand among them for comparison. Calls follow the shape of the dose curve; as a rule, active = well fitted cell-killing curve with a large enough effect; inconclusive = small, poorly fitted or top-dose-only effect, or effect the other way; inactive = flat fitted curve, though single readings scatter. Potencies of inconclusive entries are left out as doubtful fits.

Assay: qHTS for induction of synthetic lethality in tumor cells producing 2HG: qHTS for the HT-1080-NT fibrosarcoma cell line;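 also: NT is the 2HG producing partner of a matched IDH1 knockdown line; nearly all actives have a fitted effect of over 55% in size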;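 as to activity, negative = less viability: 0% = DMSO-treated cells and -100% = media-only wells without cells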
Conditions: HT-1080-NT fibrosarcoma viability, CellTiter-Glo ATP luminescence, 48 h; activity, negative = less viability: at 46.1 µM (top of the series) unless noted
Method in brief: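 Viability by CellTiter-Glo luminescence after 48 h compound exposure at 37C of HT-1080-NT cells (750/well, RPMI, 5% FBS). % activity scaled between DMSO wells and medium-only wells, then curve-fitted and categorized by curve class.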
Potency is read from the fitted curve at half-maximal effect; tags tell the direction and shape of the fitted curve.

Q: Which “activity, negative = less viability” value does the source give for `O=C(O)C(=O)Nc1nc(-c2ccc3c(c2)OCCO3)cs1` here?
A: The value was inactive: -1.69%.

Q: With `CCOC(=O)c1c(C)[nH]c(C(=O)CN2C(=O)NC(C)(c3ccc4ccccc4c3)C2=O)c1C` (stereo not given) as the compound, how does the Potency read?
A: Its Potency is inconclusive [cytotoxic, single point].

Q: For `COc1cc2c(cc1OC)C(C)N(C(=O)CCc1c[nH]c3ccccc13)CC2` (stereo not given), which Potency is on record?
A: The Potency was inconclusive [cytotoxic, partial curve, poor fit].

Q: With `Cc1ccc(S(=O)(=O)Cc2ccc(C(=O)OCc3ccccc3)cc2)cc1` as the compound, how does the “activity, negative = less viability” value read?
A: Its value is inactive: -0.0062%.

Q: For `Cc1ccc2c(C(=O)CCl)c(C)[nH]c2c1`, which Potency is on record?
A: The Potency was inconclusive [cytotoxic, single point].

Q: Which Potency does the source give for `Nc1nn2cc(-c3ccc(Br)cc3)nc2c2ccccc12` here?
A: Its Potency is inconclusive [cytotoxic, single point].

Q: Which Potency does the source give for `CCCNC(=O)C1(C)CCN(C(=O)c2ccc(C)c(F)c2)C1` (stereo not given) here?
A: Its Potency is inconclusive [rising, single point].

Q: With `COCCN1CCN(C(=O)c2ccc3oc(CCc4ccccc4)nc3c2)CC1` as the compound, how does the “activity, negative = less viability” value read?
A: Its value is inactive: 16%.

Q: With `COc1ccc(Cl)cc1-c1cc(C(=O)NCC2CCCCC2)[nH]n1` as the compound, how does the Potency read?
A: Its Potency is inconclusive [cytotoxic, single point].

Q: For `Cn1cc(CCNCc2cn[nH]c2-c2ccc(-c3ccccc3)cc2)cn1`, which Potency is on record?
A: Its Potency is inconclusive [cytotoxic, single point].

Q: With `CCOc1ccccc1OCCCCCc1c(C)n[nH]c1C` as the compound, how does the Potency read?
A: Its Potency is inconclusive [cytotoxic, single point].

Q: For `COc1ccnc(Oc2ccccc2)c1C(=O)N/C=N/OCc1ccccc1`, which “activity, negative = less viability” value is on record?
A: The value was inactive: -0.424%.

Q: Which “activity, negative = less viability” value does the source give for `CCCC(=O)Nc1ccc(S(=O)(=O)N2CCCC2)cc1` here?
A: Its value is inactive: 1.57%.

Q: With `Cc1oc(-c2ccccc2F)nc1CS(=O)(=O)CC(=O)NCCCN1CC(C)CC(C)C1` (stereo not given) as the compound, how does the “activity, negative = less viability” value read?
A: Its value is inactive: -9.33%.

Q: For `CCOC(=O)c1sc(NC(=O)Nc2ccc(Cl)cc2)cc1C`, which Potency is on record?
A: The Potency was inconclusive [cytotoxic, single point].

Q: Which Potency does the source give for `CCOc1ccc(N(CC(=O)Nc2cc(Cl)ccc2C)S(C)(=O)=O)cc1` here?
A: Its Potency is inconclusive [cytotoxic, single point].

Q: For `CC(Oc1ccc2ccccc2c1)C(=O)NNC(=S)NC(=O)c1ccco1` (stereo not given), which Potency is on record?
A: The Potency was inconclusive [cytotoxic, single point].

Q: With `CC(CCc1ccc(O)cc1)NC(c1ccccc1)c1ccc(Cl)cc1` (stereo not given) as the compound, how does the Potency read?
A: The Potency was active: 10.3 µM.

Q: Which Potency does the source give for `CC(=O)N(\C=C/C=C/C=C1\Sc2ccccc2C1=O)c1ccccc1` here?
A: Its Potency is inconclusive [cytotoxic, full curve].

Q: For `COC(=O)c1ccccc1NC(=O)C12CC3CC(C1)CC(n1cnc(Cl)n1)(C3)C2`, which Potency is on record?
A: Its Potency is inconclusive [rising, single point].

Q: For `CCOC(=O)C1=C(C)N(C)C(=O)NC1c1cccc2ccccc12` (stereo not given), which Potency is on record?
A: The Potency was inconclusive [cytotoxic, partial curve, poor fit].

Q: For `Clc1cccc2sc(-c3nnc(-c4ccccc4)o3)c(Cl)c12`, which “activity, negative = less viability” value is on record?
A: Its value is inactive: 5.24%.

Q: With `COc1ccc(CN(Cc2ccccc2)C(C)=O)cc1COc1ccc(NC(C)=O)cc1` as the compound, how does the Potency read?
A: Its Potency is inconclusive [cytotoxic, single point].

Q: With `CC(C)C[C@@H](COCc1cccc(Cl)c1)N1CCN(C(=O)c2cccc(C(F)(F)F)c2)CCC1=O` as the compound, how does the Potency read?
A: The Potency was inconclusive [cytotoxic, single point].

Q: With `CN(C)c1ccc2nc3ccc(=O)cc-3sc2c1` as the compound, how does the Potency read?
A: Its Potency is inconclusive [cytotoxic, single point].

Q: Which “activity, negative = less viability” value does the source give for `C=CCn1c(N)cc(=O)nc1SCC(=O)N1CCN(c2ccc(F)cc2)CC1` here?
A: Its value is inactive: 9.47%.

Q: With `COc1cc(-c2cc3nc(NCc4cccc(Cl)c4)ccn3n2)cc(OC)c1OC` as the compound, how does the Potency read?
A: Its Potency is active: 16.4 µM.

Q: For `Cc1ccccc1OCC(=O)N/N=C/c1cn(Cc2ccccc2)c2ccccc12`, which Potency is on record?
A: Its Potency is inconclusive [cytotoxic, partial curve].

Q: Which Potency does the source give for `CC(C)c1cccc(-c2csc(C(C)(O)c3ccccc3)n2)c1` (stereo not given) here?
A: Its Potency is inconclusive [cytotoxic, single point].

Q: Which “activity, negative = less viability” value does the source give for `COC(=O)c1sc2ncccc2c1OCc1ccccc1Cl` here?
A: Its value is inactive: 18.8%.

Q: With `CCC(=O)c1ccc(OCC(=O)OCC(=O)NCCC2=CCCCC2)cc1` as the compound, how does the “activity, negative = less viability” value read?
A: Its value is inactive: 13.9%.

Q: With `O=C(COC(=O)c1ccc(Cl)nc1)NCCc1ccccc1` as the compound, how does the “activity, negative = less viability” value read?
A: Its value is inactive: 0.867%.

Q: With `Cc1ccc(N(CC(=O)NC2CCCCC2)S(=O)(=O)c2c(C)nn(C)c2C)cc1` as the compound, how does the “activity, negative = less viability” value read?
A: The value was inactive: 14.3%.

Q: For `CCC(=O)N1CCCC(C)(C(=O)Nc2ccc(OC(F)F)cc2)C1` (stereo not given), which “activity, negative = less viability” value is on record?
A: The value was inactive: 0.821%.

Q: Which Potency does the source give for `O=C(Nc1ccccc1N1CCN(C(=O)c2ccc(Cl)cc2)CC1)c1ccc([N+](=O)[O-])o1` here?
A: Its Potency is inconclusive [cytotoxic, partial curve].

Q: With `COc1ccccc1CC(=O)Nc1sc2c(c1C(N)=O)CCCC2` as the compound, how does the Potency read?
A: The Potency was inconclusive [cytotoxic, partial curve, poor fit].

Q: For `Cn1c(=O)c2ncn(CC(=O)Nc3cccc(-c4nc5ccccc5s4)c3)c2n(C)c1=O`, which Potency is on record?
A: Its Potency is inconclusive [cytotoxic, single point].

Q: For `CCC(C(=O)O)N1C(=O)c2ccccc2C1=O` (stereo not given), which Potency is on record?
A: Its Potency is inconclusive [rising, partial curve].

Q: Which Potency does the source give for `COc1cc(-c2onc3ccc(Br)cc23)cc(OC)c1OC` here?
A: Its Potency is active: 1.84 µM.

Q: For `Cc1ccc(C(=O)N2C(=O)C(c3ccccc3)Oc3ccccc32)cc1` (stereo not given), which Potency is on record?
A: Its Potency is inconclusive [cytotoxic, single point].

Q: For `CCOC(=O)c1c(NC(=O)CSc2nc3cc(Cl)ccc3c(=O)n2Cc2ccco2)sc(C(=O)N(C)C)c1C`, which Potency is on record?
A: The Potency was inconclusive [cytotoxic, partial curve].

Q: Which Potency does the source give for `Cc1c(N/N=C(\C#N)C(=O)c2ccc(Cl)cc2)c(=O)n(-c2ccccc2)n1C` here?
A: The Potency was inconclusive [cytotoxic, partial curve].

Q: Which Potency does the source give for `COc1ccc(O)c(/C=N/NC(=O)CSc2nnc(C)n2-c2ccccc2)c1` here?
A: The Potency was inconclusive [cytotoxic, full curve, poor fit].

Q: Which Potency does the source give for `N/C(=N\OC(=O)c1ccccc1Br)c1ccc([N+](=O)[O-])cc1` here?
A: The Potency was inconclusive [cytotoxic, single point].

Q: With `COc1cc(/C=N/N2CCN(c3ccccc3OC)CC2)ccc1O` as the compound, how does the “activity, negative = less viability” value read?
A: The value was inactive: 8.71%.

Q: For `CCCCC1(Cc2ccc([N+](=O)[O-])cc2)C(=O)N(c2ccccc2)N(c2ccccc2)C1=O`, which “activity, negative = less viability” value is on record?
A: The value was inactive: -18.6%.

Q: Which “activity, negative = less viability” value does the source give for `COc1ccc(NC(=O)c2ccc(Br)o2)cc1` here?
A: The value was inactive: -2.67%.

Q: With `Cc1c(Cl)cccc1NC(=O)c1cc(-c2ccccc2O)n[nH]1` as the compound, how does the Potency read?
A: Its Potency is inconclusive [cytotoxic, single point].

Q: Which Potency does the source give for `Cc1cc(Cl)ccc1-c1nc(NCc2ccccc2)nc2ccsc12` here?
A: Its Potency is inconclusive [cytotoxic, single point].

Q: With `COc1cc(C(=O)NCCCNC(=O)c2cc(OC)c(OC)c(OC)c2)cc(OC)c1OC` as the compound, how does the “activity, negative = less viability” value read?
A: The value was inactive: 6.4%.

Q: For `COC(=O)C1=C(C)NC(=O)NC1c1ccc(-c2ccc(F)cc2)o1` (stereo not given), which Potency is on record?
A: Its Potency is inconclusive [cytotoxic, single point].

Q: With `CCN=C1NN=C(c2ccc(C)cc2)CS1` as the compound, how does the Potency read?
A: Its Potency is inconclusive [cytotoxic, single point].

Q: With `Cc1cc(N2C(=O)C(O)=C(C(=O)c3ccc(C)o3)C2c2cccc(Cl)c2)no1` (stereo not given) as the compound, how does the “activity, negative = less viability” value read?
A: The value was inactive: -13.3%.

Q: With `COc1cc(-c2cc(=O)c3c(O)c(OC)c(OC)cc3o2)cc(OC)c1O` as the compound, how does the Potency read?
A: Its Potency is inconclusive [cytotoxic, single point].

Q: Which Potency does the source give for `Clc1cccc(CNc2ccn3nc(-c4ccccc4)cc3n2)c1` here?
A: Its Potency is inconclusive [cytotoxic, single point].

Q: For `O=S(=O)(c1ccc(OCC(O)CN2CCN(c3ccccc3Cl)CC2)cc1)N1CCOCC1` (stereo not given), which Potency is on record?
A: The Potency was inconclusive [cytotoxic, single point].

Q: With `COc1cccc(OCc2cc(C3Nc4ccccc4C(=O)N3Cc3ccco3)ccc2OC)c1` (stereo not given) as the compound, how does the “activity, negative = less viability” value read?
A: The value was inactive: -0.663%.

Q: With `CCCc1ccc(C(=O)NNc2cccc(C)c2)cc1` as the compound, how does the Potency read?
A: The Potency was inconclusive [cytotoxic, partial curve].

Q: For `OC(c1cc(-c2ccc(C(F)(F)F)cc2)nc(C(F)(F)F)c1)C1CCCCN1` (stereo not given), which Potency is on record?
A: Its Potency is inconclusive [cytotoxic, partial curve].

Q: For `N#Cc1c(C(F)(F)F)cc(-c2ccc(Cl)cc2)[nH]c1=O`, which Potency is on record?
A: The Potency was inconclusive [cytotoxic, single point].

Q: Which Potency does the source give for `COc1ccc([C@H]2CC(=O)C=C(c3c(OC)cccc3OC)C2)cc1` here?
A: Its Potency is active: 4.61 µM.

Q: Which “activity, negative = less viability” value does the source give for `COc1cc(/C=N/Nc2nc(Nc3ccccc3)nc(N3CCOCC3)n2)ccc1OC(=O)c1ccco1` here?
A: The value was inactive: -24%.

Q: With `Cc1ccc(C(=O)c2cc(C)sc2NC(=O)CN2CCN(C(=O)c3ccco3)CC2)cc1` as the compound, how does the Potency read?
A: Its Potency is inconclusive [cytotoxic, single point].

Q: Which activity, negative = less viability does the source give for `COc1ccc(C(=O)N2N=C(c3cccs3)CC2c2ccccc2O)cc1` (stereo not given) here?
A: Its activity, negative = less viability is inconclusive: -31.1% [cytotoxic].

Q: For `c1ccc(-c2sc3ccccc3c2-c2ccc(OCCN3CCOCC3)cc2)cc1`, which “activity, negative = less viability” value is on record?
A: Its value is inactive: -0.214%.

Q: With `COc1cc(-c2coc3c(C(=O)NCc4ccc(OC)c(OC)c4)cccc23)ccc1O` as the compound, how does the activity, negative = less viability read?
A: The activity, negative = less viability was inconclusive: -61%.

Q: With `COc1ccc(OC)c(CCNC(=O)Cn2ccc3cc(S(=O)(=O)N4CCCC4)ccc32)c1` as the compound, how does the “activity, negative = less viability” value read?
A: The value was inactive: 1.82%.

Q: Which Potency does the source give for `Cc1nc2ccc(NC(=O)c3ccc(Cl)c(S(=O)(=O)N(C)c4ccccc4)c3)cc2s1` here?
A: Its Potency is inconclusive [cytotoxic, single point].

Q: Which Potency does the source give for `CCCCNC(=O)C(C)N(CCN(C)C)C(=O)CCCCCN1C(=O)NC(c2ccc(Cl)cc2)C(C(=O)OCc2ccccc2)=C1C` (stereo not given) here?
A: Its Potency is inconclusive [cytotoxic, single point].

Q: For `CCN1C/C(=C/c2cccc([N+](=O)[O-])c2)C(=O)/C(=C/c2cccc([N+](=O)[O-])c2)C1`, which Potency is on record?
A: Its Potency is active: 4.11 µM.
